{"source": "the supplement of paper PMC10126150", "note": "Sequences with one replicate were seen in a single cluster, so their values are uncertain.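 Further: ATP exposure 15 min at 22 °C before imaging.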"}
{"tested_on": "ATP", "test": "switch fluorescence ratio, 500 uM ATP over buffer (Cy3 cluster intensity, sum of 5 cycles each) (fold (ratio)); higher = stronger signal-on switching upon ATP binding; sequences stand for … in TCGTCGGCAGCGTCAGATGTGTATAAGAGACAGTTTTTTTTTTTTTTTTTTTTTTTTT…TC", "conditions": "aptamer strand: ATP DNA aptamer (quencher-CACCTGGGGGAGTATTGCGGAGGAAGG + anchor), 100 nM annealed; ATP concentration: 500 uM; one replicate", "outline": "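Five buffer/ATP imaging cycles were run on Cy3-labelled switching-strand clusters on a modified Illumina MiSeq flow-cell, with NaOH stripping and re-annealing between cycles. In each cycle, clusters annealed to 100 nM quencher-labelled ATP aptamer were imaged in selection buffer, then after 15 min with 500 uM ATP at 22 °C. Per cluster, the fluorescence ratio is summed target-cycle over summed buffer-cycle Cy3 intensity, averaged per switch-domain sequence. Only clusters within 100-1000 RFU were kept.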"}
{"sequence": "GCCGTAATGT", "switch fluorescence ratio": 1.12}
{"sequence": "GCCGTAGGAT", "switch fluorescence ratio": 0.964}
{"sequence": "GCCGTCGCTC", "switch fluorescence ratio": 1.04}
{"sequence": "GCCGTGTCGA", "switch fluorescence ratio": 1.01}
{"sequence": "GCCGTTATTT", "switch fluorescence ratio": 0.947}
{"sequence": "GCCGTTCCC", "switch fluorescence ratio": 0.972}
{"sequence": "GCCGTTCGTG", "switch fluorescence ratio": 1.03}
{"sequence": "GCCGTTCTGT", "switch fluorescence ratio": 0.978}
{"sequence": "GCCTAAATTT", "switch fluorescence ratio": 1}
{"sequence": "GCCTAAGTT", "switch fluorescence ratio": 0.994}
{"sequence": "GCCTACGAG", "switch fluorescence ratio": 1.09}
{"sequence": "GCCTAGGGTG", "switch fluorescence ratio": 1.56}
{"sequence": "GCCTAGTAAG", "switch fluorescence ratio": 0.921}
{"sequence": "GCCTATACTT", "switch fluorescence ratio": 1.01}
{"sequence": "GCCTATAGTT", "switch fluorescence ratio": 0.964}
{"sequence": "GCCTCACTA", "switch fluorescence ratio": 0.986}
{"sequence": "GCCTCTCAGG", "switch fluorescence ratio": 0.979}
{"sequence": "GCCTCTGGCG", "switch fluorescence ratio": 1}
{"sequence": "GCCTGGAGTG", "switch fluorescence ratio": 1.09}
{"sequence": "GCCTGTAGGC", "switch fluorescence ratio": 1}
{"sequence": "GCCTGTCTGT", "switch fluorescence ratio": 0.932}
{"sequence": "GCCTGTTTGC", "switch fluorescence ratio": 1}
{"sequence": "GCCTTGTACT", "switch fluorescence ratio": 1}
{"sequence": "GCCTTTAAAG", "switch fluorescence ratio": 0.963}
{"sequence": "GCCTTTCTGT", "switch fluorescence ratio": 0.96}
{"sequence": "GCCTTTGGAG", "switch fluorescence ratio": 0.984}
{"sequence": "GCCTTTTTGA", "switch fluorescence ratio": 0.999}
{"sequence": "GCGAAAGGTC", "switch fluorescence ratio": 1}
{"sequence": "GCGAAATCCA", "switch fluorescence ratio": 1.01}
{"sequence": "GCGAACGTTA", "switch fluorescence ratio": 1.24}
{"sequence": "GCGAAGAGAG", "switch fluorescence ratio": 1.01}
{"sequence": "GCGAATCAAT", "switch fluorescence ratio": 1.05}
{"sequence": "GCGAATCGTC", "switch fluorescence ratio": 0.991}
{"sequence": "GCGAATGGTA", "switch fluorescence ratio": 0.996}
{"sequence": "GCGAATGTTG", "switch fluorescence ratio": 0.963}
{"sequence": "GCGAATTGTT", "switch fluorescence ratio": 0.981}
{"sequence": "GCGACCGCCG", "switch fluorescence ratio": 1.06}
{"sequence": "GCGACCTCTG", "switch fluorescence ratio": 1.08}
{"sequence": "GCGACGACCT", "switch fluorescence ratio": 1.27}
{"sequence": "GCGACGTGCA", "switch fluorescence ratio": 1.07}
{"sequence": "GCGAGAGCCT", "switch fluorescence ratio": 1.02}
{"sequence": "GCGAGAGGTG", "switch fluorescence ratio": 1.12}
{"sequence": "GCGAGGAGTG", "switch fluorescence ratio": 0.997}
{"sequence": "GCGAGGATTT", "switch fluorescence ratio": 1}
{"sequence": "GCGAGGTTCA", "switch fluorescence ratio": 0.977}
{"sequence": "GCGAGTCACC", "switch fluorescence ratio": 1.18}
{"sequence": "GCGAGTCTGC", "switch fluorescence ratio": 1.03}
{"sequence": "GCGAGTTGTC", "switch fluorescence ratio": 0.949}
{"sequence": "GCGAGTTTAT", "switch fluorescence ratio": 0.99}
{"sequence": "GCGATAAGTA", "switch fluorescence ratio": 0.985}
{"sequence": "GCGATACGA", "switch fluorescence ratio": 6.32}
{"sequence": "GCGATGCGTA", "switch fluorescence ratio": 1.06}
{"sequence": "GCGATTATAA", "switch fluorescence ratio": 1.05}
{"sequence": "GCGATTATCC", "switch fluorescence ratio": 1.12}
{"sequence": "GCGATTGCTC", "switch fluorescence ratio": 1.17}
{"sequence": "GCGATTGTGC", "switch fluorescence ratio": 0.985}
{"sequence": "GCGATTTCAT", "switch fluorescence ratio": 0.971}
{"sequence": "GCGCAAGTTG", "switch fluorescence ratio": 1.06}
{"sequence": "GCGCAATAGC", "switch fluorescence ratio": 4.72}
{"sequence": "GCGCAGCCTG", "switch fluorescence ratio": 0.994}
{"sequence": "GCGCATTTAA", "switch fluorescence ratio": 1.08}
{"sequence": "GCGCCACTTA", "switch fluorescence ratio": 0.993}
{"sequence": "GCGCCATGGA", "switch fluorescence ratio": 1.05}
{"sequence": "GCGCCCGCCA", "switch fluorescence ratio": 1.07}
{"sequence": "GCGCCCGGTC", "switch fluorescence ratio": 1.06}
{"sequence": "GCGCGAGCAA", "switch fluorescence ratio": 1.03}
{"sequence": "GCGCGCAACT", "switch fluorescence ratio": 1}
{"sequence": "GCGCGGGAGA", "switch fluorescence ratio": 1.06}
{"sequence": "GCGCGGGGTC", "switch fluorescence ratio": 1.03}
{"sequence": "GCGCGGTGTA", "switch fluorescence ratio": 1.01}
{"sequence": "GCGCGTAGAC", "switch fluorescence ratio": 1.13}
{"sequence": "GCGCGTCGGT", "switch fluorescence ratio": 1}
{"sequence": "GCGCGTGGGC", "switch fluorescence ratio": 1.01}
{"sequence": "GCGCTAAT", "switch fluorescence ratio": 1.07}
{"sequence": "GCGCTAGGGG", "switch fluorescence ratio": 1.04}
{"sequence": "GCGCTCATTC", "switch fluorescence ratio": 1.14}
{"sequence": "GCGCTGGAAT", "switch fluorescence ratio": 0.991}
{"sequence": "GCGCTGGAGC", "switch fluorescence ratio": 0.985}
{"sequence": "GCGGAAACAC", "switch fluorescence ratio": 1.09}
{"sequence": "GCGGAAACGT", "switch fluorescence ratio": 1.09}
{"sequence": "GCGGAAATGG", "switch fluorescence ratio": 1.01}
{"sequence": "GCGGAAGCTC", "switch fluorescence ratio": 1}
{"sequence": "GCGGAATGAA", "switch fluorescence ratio": 1.01}
{"sequence": "GCGGAATTCC", "switch fluorescence ratio": 1.01}
{"sequence": "GCGGAGAGCA", "switch fluorescence ratio": 1.01}
{"sequence": "GCGGAGGTGT", "switch fluorescence ratio": 1.11}
{"sequence": "GCGGAGTATG", "switch fluorescence ratio": 0.992}
{"sequence": "GCGGAGTGAG", "switch fluorescence ratio": 1.01}
{"sequence": "GCGGCACCTG", "switch fluorescence ratio": 0.964}
{"sequence": "GCGGCATGTG", "switch fluorescence ratio": 1.03}
{"sequence": "GCGGCCGGGC", "switch fluorescence ratio": 1.03}
{"sequence": "GCGGCCTGAG", "switch fluorescence ratio": 1.04}
{"sequence": "GCGGCGCTAA", "switch fluorescence ratio": 1.01}
{"sequence": "GCGGCTGC", "switch fluorescence ratio": 1}
{"sequence": "GCGGGACACG", "switch fluorescence ratio": 0.964}
{"sequence": "GCGGGACGAG", "switch fluorescence ratio": 0.991}
{"sequence": "GCGGGACGCG", "switch fluorescence ratio": 1.04}
{"sequence": "GCGGGAGCAT", "switch fluorescence ratio": 0.962}
{"sequence": "GCGGGCAATT", "switch fluorescence ratio": 1.01}
{"sequence": "GCGGGCCTAT", "switch fluorescence ratio": 1.02}
